The supplement of paper PMC10126150
Values marked as one replicate rest on one cluster of the flow cell; about a third of the high ones do not repeat.

Tested on: ATP
Experiment: switch fluorescence ratio, 500 uM ATP over buffer (Cy3 cluster intensity, sum of 5 cycles each) (fold (ratio)); higher = stronger signal-on switching upon ATP binding; sequences stand for … in TCGTCGGCAGCGTCAGATGTGTATAAGAGACAGTTTTTTTTTTTTTTTTTTTTTTTTT…TC
Conditions: aptamer strand: ATP DNA aptamer (quencher-CACCTGGGGGAGTATTGCGGAGGAAGG + anchor), 100 nM annealed; ATP concentration: 500 uM; one replicate
Outline: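 Exposure to 500 uM ATP lasted 15 min at 22 °C before imaging, and a selection-buffer image was taken beforehand, for Cy3-labelled switching-strand clusters on a modified Illumina MiSeq flow-cell annealed to 100 nM quencher-labelled ATP aptamer. Five buffer/ATP cycles were run with NaOH stripping and re-annealing between them. The fluorescence ratio per cluster is summed target-cycle over summed buffer-cycle Cy3 intensity, averaged per switch-domain sequence. Clusters outside 100-1000 RFU were excluded.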

| Sequence | switch fluorescence ratio |
| --- | --- |
| GGATTATAAC | 0.995 |
| TGGATATCTT | 1 |
| AAGGTATGGC | 0.979 |
| TTCAGATATA | 1.01 |
| CCTTGCGCTC | 5.07 |
| TCCGTGAGGA | 1.06 |
| GTTTTCAACC | 0.997 |
| GATGACGCGC | 1.52 |
| CGCTGGTGCA | 1.05 |
| CGTAAAGCCC | 1.03 |
| TGTTCACGGC | 1.03 |
| TATTTGTCTG | 1.02 |
| TATCTGTACT | 1.06 |
| TGTAAACCGT | 1.16 |
| ACATGTTTCG | 0.988 |
| ATTTGCACCG | 1.07 |
| GCATAGGGGC | 1.05 |
| ATGCACGTGT | 1.02 |
| GAGCATGGGG | 0.998 |
| CAGTCTATGC | 1.07 |
| TGTCGGCCGC | 1.04 |
| GCAATAACAC | 2 |
| GGTACGCTGT | 1.05 |

| Sequence | switch fluorescence ratio |
| --- | --- |
| ATCAAAGCGA | 1.03 |
| AGTGCCGAGG | 1.02 |
| GAAATCGCTC | 1.03 |
| CACCGTGCGC | 1.3 |
| GAATTGCACG | 1.12 |
| GAAGTTGTGG | 0.977 |
| TAAAGGATAG | 1.02 |
| TCAAACTGAA | 0.983 |
| CGGCGTGAGA | 1.16 |
| CTTTTCGGCC | 1.01 |
| ATGTTAAAGT | 0.951 |
| CATAAAGGTG | 1.4 |
| AGTCATTACG | 1 |
| GGTATTAAAA | 0.991 |
| TCCAAGCCTG | 1.05 |
| GGACATGTGA | 0.999 |
| CGGGGTTATG | 0.94 |
| AAGAAATCAA | 1 |
| AGCACTACGG | 1.21 |
| GGGGGCAGTC | 1.02 |
| TCTCCGTTT | 1.69 |
| AAACATGATG | 0.97 |
| TTATGCGCCG | 1.07 |

| Sequence | switch fluorescence ratio |
| --- | --- |
| CGTCACACCT | 1.19 |
| GTGTACACGC | 1.01 |
| AGCAAACCAG | 1.05 |
| GTGGTCTTAG | 0.966 |
| GCCCGCGGCG | 0.983 |
| AGTCACTTCG | 0.995 |
| GGTCGCTCAC | 0.995 |
| CTGCCGTAAT | 1.73 |
| CAGAAAGGGG | 1.05 |
| TGACCCTCTT | 1.01 |
| AGTTAAGAAC | 1.05 |
| GCTCTAGGCT | 0.988 |
| GAGGGCCGA | 1 |
| TAGGTCATAG | 1.01 |
| CTACAGTGAC | 1.19 |
| ATTGGTCCAA | 1.02 |
| ACCTCGTGGG | 1.01 |
| ACTACAGTGA | 1.04 |
| ACGCCCGTGT | 0.992 |
| TGATGTATTT | 0.973 |
| CAGCGAGGCG | 1.06 |
| GGCGCTCCGG | 0.999 |
| GAGGGAGAT | 0.963 |

| Sequence | switch fluorescence ratio |
| --- | --- |
| ACTGGTTTAT | 1.06 |
| TAAACGTGCT | 1.01 |
| TACTCAACTA | 1.14 |
| CCCGGGCTCC | 1.49 |
| ACTAAGGCGC | 0.993 |
| AAAAAAGCTA | 0.998 |
| CTTTAGGACG | 0.9 |
| TGGGTGAGAG | 0.972 |
| CATAATGAT | 1 |
| TAGGATTCAT | 0.975 |
| ATAGTGAGTC | 0.976 |
| TATGACCGCA | 1.21 |
| ATGTCCTGGG | 0.986 |
| AATTGCCTCG | 0.97 |
| AGTCGTTGCA | 1.01 |
| TAAACTCTAA | 1.01 |
| CGATATGGAT | 0.92 |
| CTGGCTGTT | 0.957 |
| ACAGGGATGC | 0.98 |
| TGAGTAAGAT | 1.02 |
| TTAGCACTGG | 1.06 |
| CGCTTTATAT | 1.11 |
| TCTGGCGTCC | 1.02 |

| Sequence | switch fluorescence ratio |
| --- | --- |
| CGGAGCAGCT | 1.91 |
| ATAGAACACA | 0.988 |
| TAGACTTACG | 1.02 |
| AGGAGAGGCG | 1.01 |
| TGAAACTCGC | 1.04 |
| AATAAGTAGT | 0.983 |
| GTAATAGGCC | 1.07 |
| TATGGGTCGC | 0.973 |
| GTCACTCTGT | 1 |
| TTTCTCATCA | 0.963 |
| TGTTACCAGT | 1.03 |
| CAAGGTTCTC | 1.01 |
| AGAATCTACC | 1.07 |
| TCTCGACGGA | 1.02 |
| AGGTCCTCCG | 1.97 |
| TCAGAATGGA | 1.02 |
| ATTACTTCG | 1.05 |
| CATTGGAGTT | 1.03 |
| ATACGAGTT | 1.02 |
| CAAAGTTCCG | 0.994 |
| GAATGTCCCT | 1.02 |
| GTGCTATGGT | 0.976 |
| AATGACAAGT | 1.02 |

| Sequence | switch fluorescence ratio |
| --- | --- |
| ACTAATGCTG | 1.03 |
| TGATCGCGGT | 1 |
| GCAGGAACG | 0.962 |
| AATACCCTGG | 1 |
| ACCACTAAGG | 1.06 |
| AGCACATGTG | 1.07 |
| CCTTTTCATA | 1.04 |
| GCATTCGCTC | 1.09 |
| TACGTAGGTA | 1.01 |
| GTGTTTCAGC | 1 |
| GTGTACGTCG | 0.922 |
| GATTAGTACG | 0.986 |
| AGGTGACTAG | 0.96 |
| CAAAGTCACG | 1.05 |
| TTGTAGCCGG | 1.03 |
| GCCACAACTG | 1.03 |
| AATGCTAAGT | 1 |
| GCGTATTCTG | 1.09 |
| CCTGTACCTT | 1.1 |
| CTTGCGTATG | 1 |
| TTCTTAGTAA | 0.976 |
| AAATTACAAA | 1.04 |
| TCTGGACACT | 1 |

| Sequence | switch fluorescence ratio |
| --- | --- |
| AGGGCAGCTG | 0.98 |
| TCTGGTATG | 0.971 |
| GTGTGGCGTA | 1 |
| AGATCGTGCA | 0.955 |
| CTGTACCACG | 1.06 |
| TTGGCCATAT | 1.04 |
| TCCTGTAGAA | 1.17 |
| ATAGAGATT | 1.04 |
| CGCGAGGTTA | 0.986 |
| TTTATTGGTC | 0.952 |
| TGGTAAGTTA | 0.981 |
| ATGTTGGCGG | 1 |
| TAGAACAAGG | 1.03 |
| GGTGTTTTAC | 1 |
| CCAACTGGTG | 3.77 |
| CCGTGCTGTA | 1.19 |
| TTGGAACCC | 1.03 |
| ATATCAATCA | 1.01 |
| GCCGACTGAA | 0.977 |
